# According to publication PMC4336329 (PLoS ONE, 2015):
# Hit rate of the full screen: of about 310,000 compounds, about 14,000 (4.5%) showed an effect of 50% or more. The effect is printed as a negative number. This is one part of the list.
# Biological target: human ether-à-go-go-related gene (hERG) potassium channel (human, UniProt Q12809)
# Experiment: primary screen, population patch clamp on CHO cells stably expressing hERG
# 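Also: peak tail current of the secondary pulse compared with the same well before compound.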
# Chain of human ether-à-go-go-related gene (hERG) potassium channel (Q12809 whole entry, looked up): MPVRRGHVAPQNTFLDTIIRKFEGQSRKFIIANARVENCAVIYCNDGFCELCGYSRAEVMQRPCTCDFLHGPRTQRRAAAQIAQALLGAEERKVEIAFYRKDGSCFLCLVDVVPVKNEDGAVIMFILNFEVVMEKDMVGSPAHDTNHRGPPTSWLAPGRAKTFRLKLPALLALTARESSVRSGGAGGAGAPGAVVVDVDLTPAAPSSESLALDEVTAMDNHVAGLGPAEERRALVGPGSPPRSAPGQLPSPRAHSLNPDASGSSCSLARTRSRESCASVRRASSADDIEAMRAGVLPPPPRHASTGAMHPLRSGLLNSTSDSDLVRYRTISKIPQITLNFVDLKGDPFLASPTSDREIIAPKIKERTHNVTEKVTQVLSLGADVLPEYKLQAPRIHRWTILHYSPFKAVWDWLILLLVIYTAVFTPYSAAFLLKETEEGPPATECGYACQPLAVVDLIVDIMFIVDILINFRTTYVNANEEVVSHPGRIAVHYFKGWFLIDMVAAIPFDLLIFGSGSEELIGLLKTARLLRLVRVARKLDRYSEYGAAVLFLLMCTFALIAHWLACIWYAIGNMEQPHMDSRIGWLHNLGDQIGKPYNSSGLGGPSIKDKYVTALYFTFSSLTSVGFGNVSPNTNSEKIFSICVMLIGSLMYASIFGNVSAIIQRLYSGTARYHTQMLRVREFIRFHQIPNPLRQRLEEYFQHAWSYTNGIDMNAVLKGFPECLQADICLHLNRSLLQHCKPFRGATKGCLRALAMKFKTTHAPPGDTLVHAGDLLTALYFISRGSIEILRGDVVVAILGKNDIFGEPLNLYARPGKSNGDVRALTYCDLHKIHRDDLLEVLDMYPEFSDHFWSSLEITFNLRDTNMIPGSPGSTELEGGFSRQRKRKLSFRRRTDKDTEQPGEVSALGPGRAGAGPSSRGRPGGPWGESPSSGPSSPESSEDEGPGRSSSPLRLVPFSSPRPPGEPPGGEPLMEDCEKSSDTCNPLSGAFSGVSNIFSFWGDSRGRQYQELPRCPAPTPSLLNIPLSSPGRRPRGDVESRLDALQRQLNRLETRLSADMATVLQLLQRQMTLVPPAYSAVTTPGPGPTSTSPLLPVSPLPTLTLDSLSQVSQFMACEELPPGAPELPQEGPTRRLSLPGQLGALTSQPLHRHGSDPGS
row,Compound,"hERG current change (%, negative = inhibition) at 10uM"
1,N#CC1=C(N)N=C(SCc2ccccc2)C(C(N)=O)C12CCCCC2 (stereo not drawn),-1.82%
2,CCOC(=O)c1nnn(-c2ccc(OC)cc2)c1N,8.4%
3,COc1ccc(/C=N/Nc2nnc(Cc3ccc(OC)c(OC)c3)c(=O)[nH]2)cc1,-1.91%
4,Cl.O=C(O)CN1C2=NCCCN2c2ccccc21,16.1%
5,CCN(CC(=O)NCc1cccs1)C(=O)c1ccc(NS(=O)(=O)c2ccc(F)cc2)cc1,-6.21%
6,Cc1cc(N)n2nc(-c3ccc(C(C)(C)C)cc3)cc2n1,8.26%
7,COc1ccc(NC(=O)CCS(=O)(=O)c2cccc3nonc23)cc1,13.2%
8,O=[N+]([O-])c1cccnc1NCCc1ccccc1,-18.9%
9,CCN1CCN(c2ncnc3c2sc(=S)n3-c2ccccc2)CC1,-6.04%
10,O=c1oc2ccccc2c2c1nc(C(F)(F)F)n2-c1ccccc1,0.356%
11,COCCN(C(=O)/C=C/c1ccccc1)c1c(N)n(Cc2ccccc2)c(=O)[nH]c1=O,10.8%
12,O=c1[nH]c(/C(=N\O)c2ccccc2)no1,25.8%
13,CCn1c(Oc2cccc(Br)c2)nc2c1c(=O)n(C)c(=O)n2C,15.4%
14,CSC1=NC2(CC(c3ccccc3)Oc3cc(O)ccc32)CC(C)(C)N1 (stereo not drawn),-76.1%
15,Cc1ccc(CN2CCC(n3nccc3NC(=O)C3CCOC3)CC2)cc1C (stereo not drawn),-20.5%
16,Cc1ccc(NC(=O)CSc2nnc(-c3cccnc3)o2)c(C)c1,3.3%
17,Cc1n[nH]c(=O)c2c(NC(=O)CSc3ccc(Br)cc3)oc(C)c12,-8.42%
18,COc1ccccc1NC(=O)CSc1nnc2ccccn12,6.98%
19,CN(CC(=O)NCCc1ccccc1)Cc1ccco1,13.9%
20,CCOc1cc(S(=O)(=O)N2CCN(c3ccc(F)cc3)CC2)c(OCC)cc1-n1cnnn1,-23.2%
21,CCOc1ncccc1C(=O)N1CCN(C(=O)c2ccccc2)CC1,16.5%
22,Cc1nc(N2CCN(Cc3ccc4c(c3)OCO4)CC2)c2cc(-c3ccccc3)sc2n1,17.6%

row,Compound,"hERG current change (%, negative = inhibition) at 10uM"
1,CN(C)/C=C(\C(=O)c1ccccc1)c1nnnn1-c1ccccc1,4.06%
2,OCCN1CCN(c2nc(-c3ccccc3O)nc3ccccc23)CC1,-25.1%
3,CC1(C)CN(C(=S)Nc2ccc(F)cc2F)C1=O,18.8%
4,O=C(NNC(=O)c1nn(-c2ccc(F)cc2)ccc1=O)c1ccc(Cl)cc1,-16.5%
5,COc1ccc(CCN2C(=O)CC(N3CCN(S(=O)(=O)c4ccccc4)CC3)C2=O)cc1 (stereo not drawn),-18.7%
6,Cc1ccc(NC(=O)COC(=O)CN2C(=O)NC(C)(C)C2=O)cc1S(=O)(=O)N1CCOCC1,17.4%
7,CC1CCC(C(C)C)C(OC(=O)COC(=O)c2cccn2C)C1 (stereo not drawn),16.1%
8,CC(Nc1cc(N2CCCC2)ccc1[N+](=O)[O-])c1ccccc1 (stereo not drawn),10.8%
9,Cc1cccc(-n2c(SCCC(=O)O)nnc2-c2cccs2)c1C,19.2%
10,Cn1nnnc1SCC(=O)c1ccc2c(c1)OCCO2,30%
11,COc1cccc(-c2nnc3sc(-c4ccccc4)nn23)c1,8.6%
12,O=C(Nc1ccccc1)c1cc([N+](=O)[O-])ccc1Cl,4.05%
13,S=C(Nc1ccccc1Cl)N(Cc1ccccc1)Cc1ccccn1,-20%
14,CCOC(=O)C1(CC2CC2)CCN(Cc2ccc(O)c(Cl)c2)CC1,-41.6%
15,Cc1ccc(-c2csc(N=C(N)N)n2)cc1,6.15%
16,Cc1nc(-c2ccccc2O)n(-c2ccccc2)n1,9.36%
17,Cc1ccc2ccc(S(=O)(=O)NCc3ccco3)cc2c1,-5.26%
18,Cc1ccc2c(c1)c1c3n2CCN(C(=O)Cn2c(-c4ccccc4)noc2=O)C3CCC1 (stereo not drawn),-5.64%
19,CCc1ccc(C(=O)Nc2cccnc2Oc2ccc(Cl)cc2)cc1,-4.34%
20,Cc1ccc(NC(=O)C(=O)c2c[nH]c3ccccc23)cc1,22.9%
21,CC(=O)N/N=C(/C)c1ccc(NC(=O)c2csc(C)c2C)cc1,21.4%
22,CC(C)=CCN1CCN(Cc2ccc(Oc3ncccn3)cc2)CC1CCO (stereo not drawn),9.1%

row,Compound,"hERG current change (%, negative = inhibition) at 10uM"
1,COc1ccccc1/C=C/C(=O)OCCN1C(=O)c2ccccc2C1=O,4.79%
2,CC(C)CNC(=O)COC(=O)c1ccc2c(c1)C(=O)N(Cc1ccco1)C2=O,-0.0401%
3,O=C(c1ccccn1)c1ccc2ccccc2n1,9.62%
4,O=C(Nc1ccccc1)C(c1ccccc1)c1ccccc1,15.1%
5,COc1ccc(CCN(C(=O)C(F)(F)F)C(C(=O)NC2CCCC2)c2cccs2)cc1 (stereo not drawn),0.495%
6,COc1ccc(OC)c(NC(=O)CCCCCn2nnc3ccccc3c2=O)c1,-2.09%
7,Nc1nc(NCc2ccccc2)nc(NCc2ccccc2)c1[N+](=O)[O-],16.2%
8,CC(NCc1ccccc1O)C12CC3CC(CC(C3)C1)C2.Cl (stereo not drawn),-37.4%
9,COc1cc(/C=N/NC(=O)c2ccncc2)ccc1OC(=O)c1ccc([N+](=O)[O-])cc1,2.29%
10,COc1ccc(CN(C(=O)c2ccccc2OC)C2CCS(=O)(=O)C2)cc1 (stereo not drawn),-6.54%
11,O=C(Nc1nnc(CSCc2ccc(F)cc2)s1)c1ccc([N+](=O)[O-])cc1,-1.41%
12,CC(Oc1cc2oc(=O)c3c(c2cc1Cl)CCCC3)C(=O)NCc1cccnc1 (stereo not drawn),-12.9%
13,CCOC(=O)C1=C(N)OC2=C(C(=O)CCC2)C12C(=O)N1c3c(ccc(C)c32)C(C)=CC1(C)C (stereo not drawn),-20.8%
14,Cc1noc(NS(=O)(=O)c2ccc(NC(=O)/C=C/c3ccc(Br)cc3)cc2)c1C,10.9%
15,NC(=O)C1(N2CCCCC2)CCN(C(=S)NCCc2ccccc2)CC1,3.91%
16,COc1ccc(CNC(=O)C2CCC(CNc3c(N4CCOCC4)c(=O)c3=O)CC2)cc1 (stereo not drawn),5.29%
17,CCOC(=O)c1c(C)[nH]c(C)c1S(=O)(=O)NCC1CCN(Cc2cccc(F)c2)CC1,-1.69%
18,CCCN1C2CCCC1CC(NC(=O)c1ccc(OC)cc1)C2 (stereo not drawn),-30.1%
19,Cc1ccc(S(=O)(=O)NNC(=S)Nc2c(Cl)cccc2Cl)cc1,16.8%
20,O=C(CNC(=O)Cc1ccccc1)NCC(=O)OCC(=O)c1ccc(F)cc1,8.03%
21,COc1ccccc1NC(=O)C1=C(C)Nc2ncnn2C1c1ccccc1C (stereo not drawn),5.06%
22,Cc1nc2sc(C(c3ccccc3)N3CCN(C(=O)c4ccco4)CC3)c(O)n2n1 (stereo not drawn),8.97%

row,Compound,"hERG current change (%, negative = inhibition) at 10uM"
1,NC(=O)CC(NC(=O)Cc1cccc2ccccc12)c1ccc(NCC2CC2)c([N+](=O)[O-])c1 (stereo not drawn),-22.3%
2,Cc1ccc(-n2nnnc2SCC(=O)Nc2sccc2C#N)cc1,14.5%
3,Cc1ccccc1NC(=S)NC1(C)CCS(=O)(=O)C1 (stereo not drawn),-3.47%
4,O=C(NCC(c1cccs1)N1CCOCC1)c1ccco1 (stereo not drawn),13.3%
5,COc1ccc(C(=O)NC2CCCCC2)cc1S(=O)(=O)N1CCOCC1,-14.8%
6,Cc1sc2ncnc(OCc3nnc(-c4cccs4)o3)c2c1C,2.2%
7,COc1ccc(C(=O)NNC2=NCCCCC2)cc1,21.6%
8,Cc1ccc(C)c(S(=O)(=O)N2CCN(C(=O)CCC(=O)NCc3ccc(Cl)cc3)CC2)c1,-65.1%
9,CCn1c(CCNC(=O)c2ccc(OC)cc2)nnc1SCC(=O)Nc1ccccc1F,-22.7%
10,N#CC1=C(N)Oc2cc(N)ccc2C1c1cc(Br)cs1 (stereo not drawn),-13.6%
11,COc1ccccc1CC(=O)Nc1ccc([N+](=O)[O-])cc1O,17.8%
12,FC(F)(F)c1ccccc1NC(=S)Nc1cccc(Cl)c1,4.06%
13,C#CCOCCOCCOCCNc1nc(N2CCN(C(=O)[C@H](C(C)C)n3cc(CCO)nn3)CC2)nc(N2CCN(C(=O)[C@H]([C@@H](C)CC)n3cc(CCC[NH+]=C(N)N)nn3)CC2)n1.[Cl-],12.9%
14,Cc1[nH]c2ccccc2c1C(=O)COC(=O)C1CC(=O)N(Cc2ccccc2)C1 (stereo not drawn),-11.7%
15,C=CCNC(=O)c1ccccc1NC(=O)c1ccc(Cl)c(S(=O)(=O)Nc2cc(C)ccc2C)c1,11.9%
16,CC1CCC(NC(=O)Cn2cc3c(n2)CCCC3)CC1 (stereo not drawn),8%
17,CCCC(=O)NC(NC(=S)Nc1ccc(S(N)(=O)=O)cc1)C(Cl)(Cl)Cl (stereo not drawn),-2.12%
18,O=C(CSCc1ccc([N+](=O)[O-])cc1)Nc1ccccc1C(=O)O,24.7%
19,CN(C)c1ccc(Nc2ncnc3ccc(Br)cc23)cc1,20.4%
20,Cc1ccccc1NC(=S)NCc1ccc2c(c1)cc(C)n2C,8.83%
21,O=C(Cn1nnc(-c2ccc(N3CCOCC3)cc2)n1)OC1CCCCC1,-3.51%
